# Results reported in the supplement of paper PMC11417369.
# Some of the results follow.
# Test system: PfAP2-HC AP2 domain (GST-tagged)
# Test: gcPBM binding intensity (ln(normalized median fluorescence intensity)); higher = stronger DNA binding
# Outline: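 GST-tagged P. falciparum DNA-binding domains produced in E. coli were incubated for 1 h on an Agilent 4 × 180k array of primer-extended double-stranded 36-bp intergenic genomic probes with negative controls. Binding intensity is the highest Masliner-normalised natural-log median intensity across replicate spots of either probe orientation, with bound protein detected by Alexa488 anti-GST antibody at 488 nm.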
row,Sequence,gcPBM binding intensity (ln)
1,TGGCAAAATAGGCACACACACATATACATCTATATT [CACACA_site6626],10.7
2,ATATGATAAATTATATGTACTTAAAATATATTATAA [XGTACX_site5904],9.6
3,AAAAAAAAAAAAAAAAAAAAAAAAACAATGAATTTA [GTGCAC_negctrl_site698],9.64
4,AGTAGATATAATTATAGTACTTTGATGTTTTCTTTA [XGTACX_site5038],9.62
5,ATGTATTTATTATTTAGTACACATTATTTTCTTATA [XGTACX_site6365],9.7
6,AAATTTTCTTTTAAGTGTACGAAATTTAGTATTTCA [XGTACX_site7819],9.46
7,TAAACAGTATGCAACGCATGCGTTGTTATATATAAA [TGCATGCA_site232],9.79
8,ATTTTTTTTTTTTTTTTTTTATTCTTAATTCATATA [CACACA_negctrl_site342],9.57
9,TTTTTGTTTGTTCACGACTACATTATGTCATAAATG [CACACA_negctrl_site597],9.62
10,TATATATAAATATATACACACATGAAAATAAATAAA [CACACA_site2514],9.85
11,TTTTTCTATATTTTCTTTTATAAAATATATAATTTT [GTGCAC_negctrl_site345],9.57
12,GTCATATATTATAATAGTACATAAATAATTGATGCC [XGTACX_site3567],9.68
13,ATAGTTATTTTATAGCGTACACAATAAATATATAAA [XGTACX_site4445],9.7
14,CACAGAAATAGAGATACACACACACCGATATTTATG [CACACA_site9313],10.8
15,AGGTAGAAAAAAGACACACACATTATGTATATATAT [CACACA_site377],10.1
16,TTATAGGATCAAGCGCGTACATATCTTTATAAAAGA [XGTACX_site5775],9.51
17,ATATATATATATGTGTGTACATATATGTGGATGGAT [XGTACX_site6240],10.1
18,AATAACAAAATATTAACACACATAACATATTATAAA [CACACA_site2803],10.1
19,TTTTTTCATATAAATACATGCACACAAAAATATCAA [TGCATGCA_site602],9.63
20,TAATGTTTTTTTTGTTTACCAAAAATAATACATTAT [CACACA_negctrl_site203],9.53
21,ATATACAAATATATATATATATATATATATATATAT [CACACA_negctrl_site886],9.72
22,TATTTCTTTATTGGCACACATTTTTTCAATTATATA [CACACA_site4975],10.1
23,GCAAATATGTTGATATGTACATATATATATATATAT [XGTACX_site445],9.73

row,Sequence,gcPBM binding intensity (ln)
1,ATTATTTTAATAAAACGTACAAAATATAAATCAAAA [XGTACX_site3770],9.65
2,AAAAAATATACATATACACACATATGTATATATAAT [CACACA_site8676],9.86
3,AGTTTATAGTGATATTGTACATATATATATATATAT [XGTACX_site572],9.84
4,AAAATTTATATAAGCACACAAATATATATTTATATC [CACACA_site3291],9.69
5,TTATTTTTGTTTTGAAGTACAAAAAAATATATTCTT [XGTACX_site6416],9.26
6,TATTTATACTCAACTTTCTGTTATTCCAACTTTTTT [XGTACX_negctrl_site410],9.73
7,TTATATATTAATAGTAGTACTATATTGAATCACCCC [XGTACX_site2868],9.7
8,TTTTAAATCTTATATTCCCCACATAAATAGCTCTCT [GTGCAC_negctrl_site665],9.39
9,ACAACAAAAATAAGCACACACAAATATACATACATA [CACACA_site7664],11.3
10,ACATAAGAACATATTTGTACGTATATAAATTAAATA [XGTACX_site6127],9.71
11,AATGAAAAAAAAAAAAAAAAGAAGAAGCAAATGGTA [TGCATGCA_negctrl_site335],9.54
12,ATAAATAATTATATATGTACACATTATGAATGGATA [XGTACX_site8336],9.8
13,AGATTATTTGGACATGCATGTAAAAAAATACGTATA [TGCATGCA_site972],9.86
14,TATGTGTATTTATTTGCATGTTGGTTGTATTTTTTC [TGCATGCA_site479],10.4
15,TCTTCATATGTTTACTGTACGAGAAAAAAAAAAAAA [XGTACX_site6418],9.31
16,TAATAAAATAAAAATTGTACATTTTATATTTATCAA [XGTACX_site5134],9.4
17,ATTTCCCACTTGTGTGTGCGCATGTGTATATATTTA [GTGCAC_site9949],10.4
18,AAAAGTGATAATAAGAGTACATAAAAAATTTATTAT [XGTACX_site8037],9.71
19,TACATATATATAATATGTACTTATAATATGTATTTA [XGTACX_site2162],9.51
20,TTATTTGTTTGTTGGATGCTTTTTTTTTTTTTTTTT [CACACA_negctrl_site1697],9.83
21,TATTCTATACTATATTGTACTATAATATAATATACT [XGTACX_site797],9.8
22,AAATAATTTATAAATAAATACATTGTTACTTTTTCT [GTGCAC_negctrl_site639],9.51
23,CTACACAAGCATTAAACACACAAAAGGGATACTTTG [CACACA_site1083],10.2

row,Sequence,gcPBM binding intensity (ln)
1,ATTCAAAAAAATAAAATAAACATAAATAAACATAAA [TGCATGCA_negctrl_site390],9.63
2,GGTATTACTTTTAGCTGTACTTATTTAAAAGTCAAA [XGTACX_site530],9.56
3,ATTTTTTTTTTTTTATGTACATATTAAAAAAAATAT [XGTACX_site1829],9.47
4,ATTTTTACTTTTTATGCATGCTATATTTTCAACCAT [TGCATGCA_site871],9.86
5,ATTAAGGAAAAATTATGTACACAAAAACATATAACA [XGTACX_site2901],9.85
6,TATACATGTTCAATTTGTACATATATAAATATATAT [XGTACX_site3554],9.58
7,AAGAACAGATAAAATCGTACGTGAAACATGAACTTG [XGTACX_site7793],9.74
8,TCTGAAATTTTAGGGGTGCCTGGGACTAAAGAAACG [GTGCAC_site9785],9.39
9,TAGAAACCATAAAAATGTACTTAAAAATAGACAATT [XGTACX_site5007],9.57
10,AGACTTTTTATGAGCACACACATATATTATGGAGTA [CACACA_site1040],9.81
11,TTTAATTCCCATATATGTACACAATTTCTTCTATAA [XGTACX_site1465],9.66
12,ATAAATTCATTATATTGTACAAACAAATGAAAAAAA [XGTACX_site8304],9.65
13,ATACATAAATATTATTGTACATATATAATATTAATA [XGTACX_site3514],9.61
14,GGAAAAAGAAATTAATGTACATGTGGATGTATGAGG [XGTACX_site5468],9.75
15,AAAATATTTAAGCATTGTACATATTTTTACAAATAC [XGTACX_site5349],9.56
16,AAAATTCATCCAACAAGTACATAAATATAATATTAT [XGTACX_site4596],9.67
17,TCAAGAGTTATATAAACACACATACATACAGACATA [CACACA_site6998],10.1
18,TAAGAAATTGAGCGCACACATACATCTGTGGGATGG [CACACA_site1548],10.3
19,ATTGTGGATATTCTTACACACAAATTTATTTATAAA [CACACA_site7267],9.57
20,ATGTAAATATTTTGTATGCACTTTGATGCATCTTTT,9.71
21,AGTATTCATAAAAATACACACATGGAAAAATAAAAT [CACACA_site1454],10.2
22,AGCAAAAAAAAAAAAAAAAAAAAAATAATAAAAAAT [TGCATGCA_negctrl_site202],9.13
23,GTTTTCTAGTGGGGGTGTACATATTTATATTTAATA [XGTACX_site8378],10.4

row,Sequence,gcPBM binding intensity (ln)
1,ATATATATATAATAAGTGCAAAAAAAAGAAAAAAAT,9.88
2,TTTTTTTTTTTTGAGGTGCATATATCAGATCAATAT,9.4
3,CATATATTAATATGTACACACATTAATAAAAAAAAA [CACACA_site7504],9.86
4,AGCCACTTAAAATACACACACACCAAAAAAAAAAAA [CACACA_site5497],10.2
5,TATTTTATTTATTGAAGTACATTATACAAAAATAAA [XGTACX_site4824],9.15
6,AAATAAAATAAAATACGTACCTATTGTGCGTATTAA [XGTACX_site2912],9.58
7,AATAATTTCCAAAAATGTACATATATTTACATATAT [XGTACX_site1790],9.86
8,ATTTTAACTCCCCTTAATCTATTGTATATATATATA [CACACA_negctrl_site208],9.69
9,TAATAAATGTTATTAGTGCATAATAGATAATATATT,9.74
10,TATTCGAACAAAAATACATGCACATATGCATAATAA [TGCATGCA_site171],9.55
11,TTTTCCAGTAAATATTTTTTTATAATATTTATATAT [CACACA_negctrl_site387],9.53
12,ATAATATAAATATGCACACAAATTATTACCCAAAAA [CACACA_site2524],9.88
13,GTTATATTCCTACAGAGTACATAAAAATGCACATCA [XGTACX_site1948],9.54
14,AAATATAATATATGCACACATACATACAGATATATA [CACACA_site4235],9.91
15,ATAAATATAGGACACACACACATATTATATATATAT [CACACA_site5658],10.5
16,CACGCGAACATACATACACACACATATATATATATG [CACACA_site7951],10.1
17,ATATATTTTTTCTTAACACACATATATAAAATAAAA [CACACA_site3500],9.48
18,CAAAATATATATACCACACACACATACCTCTATTTG [CACACA_site1853],10.4
19,TATATATATATATACACACACACACCGATATATATA [CACACA_site8813],10.5
20,TATATAAAAAAACAAAGTACATGTTCTTAATCATTT [XGTACX_site8446],9.66
